# From publication PMC6919601, “Identification of Plasmodium dipeptidyl aminopeptidase allosteric inhibitors by high throughput screening” (PLoS ONE, 2019)
# In all, about 110,000 compounds went through this assay and about 230 (0.21%) showed an effect of 50% or more. The list shows a part of the results.
# Target: DPAP1 (Plasmodium falciparum, UniProt Q8IIJ9)
# Experiment: primary screen, percent inhibition; read by cleavage of a fluorogenic dipeptide substrate; higher = more effect of the substance
# Design: species or system P. falciparum D10 trophozoite lysates; single well
# 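Note: 30 min substrate incubation versus DMSO and 10 µM JCP410 controls.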
# Sequence of DPAP1 (Q8IIJ9 whole entry, looked up): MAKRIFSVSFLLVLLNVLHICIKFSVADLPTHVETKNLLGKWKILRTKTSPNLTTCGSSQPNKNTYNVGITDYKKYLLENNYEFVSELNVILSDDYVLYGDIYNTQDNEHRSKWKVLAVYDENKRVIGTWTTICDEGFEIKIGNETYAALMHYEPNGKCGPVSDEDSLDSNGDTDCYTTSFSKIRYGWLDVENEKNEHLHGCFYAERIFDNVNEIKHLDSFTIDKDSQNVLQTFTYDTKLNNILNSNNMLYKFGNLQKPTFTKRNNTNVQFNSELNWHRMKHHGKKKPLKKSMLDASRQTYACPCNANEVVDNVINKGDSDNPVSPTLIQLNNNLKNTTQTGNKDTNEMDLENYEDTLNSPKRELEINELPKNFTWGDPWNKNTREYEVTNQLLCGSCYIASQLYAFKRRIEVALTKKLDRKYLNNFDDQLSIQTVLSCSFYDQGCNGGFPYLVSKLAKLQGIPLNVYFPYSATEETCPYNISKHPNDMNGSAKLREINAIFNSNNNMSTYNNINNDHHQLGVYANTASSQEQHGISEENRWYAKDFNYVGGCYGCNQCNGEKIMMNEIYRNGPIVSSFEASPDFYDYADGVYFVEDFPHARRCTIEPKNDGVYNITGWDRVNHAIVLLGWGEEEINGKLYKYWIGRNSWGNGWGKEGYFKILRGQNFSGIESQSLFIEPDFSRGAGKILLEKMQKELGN
row,Compound,% Inhibition @ 10 uM [%]
1,Cc1ccc2n1CCn1cc(-c3ccc(Br)cc3)cc1-2,1.02
2,CCOC(=O)c1noc2c1CCc1sccc1-2,0.231
3,CCOC(=O)c1cnc2c(Cl)cccc2c1NCc1ccccc1,0.611
4,CC(C)(C)NC(=O)COc1ccc(CNCc2cccs2)cc1,2.48
5,CCOCCCNC(=O)Nc1nnc(N(C)Cc2ccccc2)s1,0.623
6,Fc1cccc(CCNC2CCN(Cc3ccccc3)CC2)c1,-0.0953
7,COc1ccc2c(c1)c1c(n2Cc2ccccc2)CCCC1,-4.35
8,CC(=O)N(C)c1ccc(NC(=O)[C@@H]2CCCC[C@@H]2C(=O)O)cc1,2.32
9,S=C(Nc1ccc(Cl)cc1)c1sc(N2CCOCC2)nc1N1CCOCC1,-5.32
10,CC(C)N(Cc1ccccc1)C(=O)C1=CCN(S(=O)(=O)c2ccc(F)cc2)CC1,0.137
11,COc1ccc(C(=O)Nc2cc(Cl)ccc2OC)cc1,-2.6
12,COc1cc(NC(=N)Nc2nc(O)c3c(n2)CCCC3)cc(OC)c1,-5.35
13,Cc1ccccc1CN1CCN(C(=O)C(c2ccccc2)c2ccccc2)CC1,0.611
14,CCN(CC)C(=O)Cn1c(=O)n(CC(=O)NCc2ccc(C)cc2)c(=O)c2sccc21,-3.77
15,COc1nc(OC)nc(N(C)CCO)n1,2.16
16,CCC/C(=N\C(C)C)C1=C(O)CC(C)(C)CC1=O,-5.07
17,CC(C)COC(=O)N[C@@H](CC1CCCCC1)C(=O)NCC#N,-3.49
18,CCOC(=O)C1CCN(Cc2cccnc2)CC1,-1.86
19,Cc1noc(C)c1S(=O)(=O)NCCc1ccc(Cl)cc1,2.02
20,CN1CCN(C(=O)CN2N=C(c3ccccc3)CCC2=O)CC1,5.35
21,Cc1n[nH]c(C)c1/N=C1\S/C(=C2\Sc3ccccc3N2C)C(=O)N1C,3.13
22,O=C(Nc1ccccc1F)c1ccc(Br)cc1,5.29
23,CCOc1cc(OCC)cc(C(=O)Nc2ccc(Br)c(C)n2)c1,-9.87

row,Compound,% Inhibition @ 10 uM [%]
1,Cc1ccccc1-c1nc2ccccc2c(=O)n1C1CCS(=O)(=O)C1 (stereo not shown),0.291
2,COc1ccc(-c2noc(-c3ccccc3C(=O)Nc3cccnc3)n2)cc1OC,-0.0108
3,N#CCc1nc(-c2ccccc2)cs1,-5.33
4,CC(=O)c1c(C)n(CC(=O)N2CCOCC2)c2ccccc12,0.032
5,O=C(CN1C(=O)S/C(=C\c2c[nH]c3ccc(Br)cc23)C1=O)N1CCCC1,-4.54
6,COc1cc(OC)c(CN2CCN(c3ccccc3)CC2)cc1Br,1.55
7,C=CCNCc1cccn1-c1sc2c(c1C#N)CCCC2,-5.96
8,COc1cc2nc3c(O)n(Cc4ccc(Cl)cc4)cnc-3c2cc1OC,-3.52
9,CC1CC(Nc2ccccc2)c2ccccc2N1C(=O)COc1ccccc1Cl (stereo not shown),1.35
10,COc1ccc(/C=c2\sc3nc4cc(OC)c(OC)cc4c(=O)n3c2=O)cc1,5.42
11,COc1ccc(C2NC(S)=NC(C)=C2C(=O)Nc2ccc(Cl)cc2)cc1 (stereo not shown),1.27
12,CC(C)c1ccccc1OCCCCCN1CCOCC1,3.86
13,CC1CC(=O)C2=C(C1)OC(N)=C(C#N)C2c1ccc(N(C)C)cc1 (stereo not shown),3.54
14,COc1ccc(-c2cc(-c3ccccc3O)[nH]n2)cc1,1.57
15,COc1cccc(CNC(=O)c2nn(C)c3c2COc2ccccc2-3)c1,-1.72
16,Cc1ccc(S(=O)(=O)N(CC(=O)Nc2cccnc2)c2ccc(C(C)C)cc2)cc1,0.843
17,O=c1c(Cl)c(NCCCO)cnn1C12CC3CC(CC(C3)C1)C2,3.51
18,COc1ccc(C2C(C#N)=C(N)OC3=C2C(=O)CCC3)cc1COc1cccc(Br)c1 (stereo not shown),6.27
19,COc1cccc(S(=O)(=O)NCC(=O)N2CC(C)OC(C)C2)c1 (stereo not shown),3.56
20,CC1CCCC(NC(=O)CCCn2sc3ccccc3c2=O)C1C (stereo not shown),-8.56
21,N#CCNC(=O)CCS(=O)(=O)Cc1ccccc1OC(F)F,-1.5
22,Cc1ccc(S(=O)(=O)Nc2cccc3nsnc23)cc1,-2.32
23,Cc1cccc(OCC(=O)Nc2ccc(S(=O)(=O)N3CCCCC3C)cc2)c1 (stereo not shown),-1.52

row,Compound,% Inhibition @ 10 uM [%]
1,C=CCNC(=O)c1cc(-c2cccnc2)nc2ccccc12,7.18
2,COCc1cc(C)nc(SCC(=O)Nc2c(C)cc(Br)cc2C)c1C#N,-1.38
3,CCc1cc(C(=O)O)c(NC(=O)c2ccc(C(C)(C)C)cc2)s1,2.76
4,Cc1ccc(C)c(NC(=O)CSc2ncnc3[nH]cnc23)c1,0.161
5,CCc1cc2c(N3CCOCC3)ncnc2s1,-0.687
6,COc1ccc(NC(=O)/C(=C\c2ccc3c(c2)OCO3)NC(C)=O)cc1,4.3
7,CNS(=O)(=O)c1ccc2c(c1)C(=O)c1ccccc1C2=O,-1.18
8,CCCCN(C)c1nc(C)nc2sc(C)cc12,-2.17
9,Cc1cc(C)n(-c2nnnn2-c2ccccc2)n1,-3.07
10,Cc1c2cnn(CC(=O)NCc3ccc4c(c3)OCO4)c(=O)c2c(C)n1Cc1ccccc1,4.4
11,NC(=O)c1nc(-c2cccc(Br)c2)nc2c1nc(O)n2C1CCCCC1,-10
12,CC1CCCCN1C(=O)c1cccc(F)c1F (stereo not shown),2.18
13,CC1CCC(Nc2nc3ccccc3c3nc(-c4cccnc4)nn23)CC1 (stereo not shown),-0.692
14,COc1ccc(OCc2cccc(C(=O)N3CCN(c4ccc(OC)cc4)CC3)c2)cc1,-5.06
15,CC(=O)NC1=NN(C(C)=O)C(C)(CCS(=O)(=O)c2ccc(Cl)c(Cl)c2)S1 (stereo not shown),-13
16,CCOc1ccc(OCC)c(C(=O)c2nc3c(n2O)CCCC3)c1,0.0539
17,CN1CCN(Cc2cccs2)CC1,2.33
18,CCOc1ccc(C2CC(=O)NC3=C2C(=O)CC(C)(C)C3)cc1Cl (stereo not shown),-7.98
19,O=c1oc2ccc(NS(=O)(=O)c3ccc(Br)cc3)cc2s1,1.76
20,CCOC(=O)N1CCC(NC(=O)c2cc3c(C)nccc3nc2O)CC1,2.35
21,O=C(CSc1nnnn1-c1ccc(C(=O)O)cc1)NC1CCCCC1,-0.386
